Reference: paper PMC4336329 (PLoS ONE, 2015)
Among all 310,000 compounds or so, about 14,000 (4.5%) showed an effect of 50% or more. Effects have a minus sign here. This is one part of the list.

Target: human ether-à-go-go-related gene (hERG) potassium channel (human, UniProt Q12809)
Assay: primary screen, population patch clamp on CHO cells stably expressing hERG
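Further: peak tail current of the secondary pulse compared with the same well before compound.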

Chain of human ether-à-go-go-related gene (hERG) potassium channel (Q12809 whole entry, looked up): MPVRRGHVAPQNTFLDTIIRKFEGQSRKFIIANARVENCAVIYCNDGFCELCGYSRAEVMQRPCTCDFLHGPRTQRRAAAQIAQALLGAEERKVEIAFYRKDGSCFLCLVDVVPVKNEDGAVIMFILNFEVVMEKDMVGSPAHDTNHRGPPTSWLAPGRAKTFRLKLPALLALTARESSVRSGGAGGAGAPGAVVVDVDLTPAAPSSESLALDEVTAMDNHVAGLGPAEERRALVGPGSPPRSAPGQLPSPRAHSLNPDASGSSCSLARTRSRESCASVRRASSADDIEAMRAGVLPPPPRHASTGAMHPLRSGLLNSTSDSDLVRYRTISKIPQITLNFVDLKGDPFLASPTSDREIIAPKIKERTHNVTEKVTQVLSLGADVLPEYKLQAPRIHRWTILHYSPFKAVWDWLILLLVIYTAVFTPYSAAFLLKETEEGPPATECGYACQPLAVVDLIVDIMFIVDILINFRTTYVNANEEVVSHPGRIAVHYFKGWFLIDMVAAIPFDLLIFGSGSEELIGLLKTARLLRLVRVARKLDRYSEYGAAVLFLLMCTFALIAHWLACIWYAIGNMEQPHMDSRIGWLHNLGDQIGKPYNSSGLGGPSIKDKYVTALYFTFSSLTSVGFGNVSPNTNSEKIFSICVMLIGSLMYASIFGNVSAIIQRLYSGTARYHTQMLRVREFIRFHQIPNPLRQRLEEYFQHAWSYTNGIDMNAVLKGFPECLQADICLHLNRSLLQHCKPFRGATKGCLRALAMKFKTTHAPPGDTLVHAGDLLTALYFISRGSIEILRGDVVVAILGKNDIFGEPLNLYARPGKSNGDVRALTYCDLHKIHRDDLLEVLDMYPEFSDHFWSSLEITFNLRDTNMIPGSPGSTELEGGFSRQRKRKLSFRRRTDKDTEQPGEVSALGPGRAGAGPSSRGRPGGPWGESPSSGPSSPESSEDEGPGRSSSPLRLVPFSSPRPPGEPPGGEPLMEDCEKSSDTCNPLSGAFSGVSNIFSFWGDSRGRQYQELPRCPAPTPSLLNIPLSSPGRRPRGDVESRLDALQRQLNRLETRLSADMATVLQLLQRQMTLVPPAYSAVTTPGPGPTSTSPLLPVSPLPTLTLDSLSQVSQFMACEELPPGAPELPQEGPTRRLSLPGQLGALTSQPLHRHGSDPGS

Compound | hERG current change (%, negative = inhibition) at 10uM [%]
COc1ccc(N2C(=O)C3CCCN3C2c2cccc(F)c2)cc1Cl (centres unmarked) | -11.8
CN(CCO)c1ccc(-c2n[nH]c(=O)c3ccccc23)cc1[N+](=O)[O-] | -7.99
CCCCCSc1cc(OC)c(CCNC)cc1OC.O=C(O)/C=C\C(=O)O | -48.2
COc1cccc2cc(C(C)N(CCCN3CCOCC3)C(=S)Nc3cccc(C)c3)oc12 (centres unmarked) | 14.8
O=C(Nc1ccc(N2CCOCC2)nc1)c1c(F)cccc1F | 16.5
COC(=O)c1ccccc1Oc1ccc(NC(=O)C(C)(C)CCl)cc1 | -2.32
Cc1cc(=O)[nH]c(N2CCc3ccccc3C2)n1 | -5.68
Cc1cccc(NC(=O)c2c(F)c(F)c(F)c(F)c2F)c1 | 0.917
CC(C)OCCCNC(=O)c1c(N)n(CC2CCCO2)c2nc3ccccc3nc12 (centres unmarked) | -17.6
N#C/C(=C\c1cc2ccccc2nc1N1CCOCC1)C(=O)Nc1ccc(N2CCOCC2)cc1 | -24.2
Cc1cc2ccccc2c(=O)n1CC(=O)N1CCN(c2cccc(Cl)c2)CC1 | -2.43
C/C(NC(=O)c1cccs1)=C1\C(=O)C[C@@H]2[C@H]1C2(C)C | -19.6
CN(CC(=O)NC(=O)NC1CCCCC1)Cc1ccccc1 | -8.93
Cc1ccc(-n2c(SCC(=O)Nc3ccc4c(c3)OCO4)nnc2-c2ccccn2)cc1 | 4.28
COc1ccc(/C=N/N=C2\SC(CC(=O)O)C(=O)N2c2ccccc2)c(OC)c1 (centres unmarked) | 4.13
CCC(C)[C@H](N)c1cn([C@@H](Cc2cc3ccccc3[nH]2)C(=O)N2CCNCC2)nn1.Cl (some centres unmarked) | 18.5
CCOC(=O)CSC1=C(C#N)C(=O)NC(c2ccc(OC)cc2)S1 (centres unmarked) | 19.9
Cc1nn(Cc2ccc(Cl)cc2Cl)c(C)c1NC(=O)NC12CC3CC(CC(C3)C1)C2 | 7.38
Cn1nc(-c2ccc(C(=O)Nc3ccc(F)cc3)cc2)c2ccccc2c1=O | -13
COc1cc(SC)ccc1C(=O)Nc1ccccn1 | 7.08
O=C(CCCSc1nc2ccccc2[nH]1)NC(c1ccccc1)c1ccccc1 | -32.6
CC(C)n1ncc2c(C(=O)Nc3ccc(S(N)(=O)=O)cc3)cc(C3CC3)nc21 | 0.233

Compound | hERG current change (%, negative = inhibition) at 10uM [%]
CCn1c(N2CCN(C(=S)NCC(C)C)CC2)nc2ccccc21 | -30.4
O=C(Nc1cccc(S(=O)(=O)N2CCCCC2)c1)c1ccc([N+](=O)[O-])o1 | -51.4
O=C(CCC(=O)c1cccs1)NCc1ccccc1 | 1.91
Cc1nc(Nc2nc3ccccc3o2)nc(C)c1C | 10.3
C=CCOc1ccccc1/C=C/C(=O)O | -4.13
CCC1(C)Cc2ccccc2-c2c1c(=O)n(-c1ccc(C)cc1)c1nnnn21 (centres unmarked) | 2.8
Fc1ccccc1-c1nc(NCCCN2CCOCC2)c2ccccc2n1 | -45.9
Cc1cc2c(cc1C)N(C(=O)CSc1nncn1C)C(C)(C)c1ssc(=S)c1-2 | -35.7
Cc1cccc(OCC(=O)Nc2ccc(C(=O)Nc3ccccc3C(=O)O)cc2)c1C | -7.2
NC(=O)N=Nc1c(O)n(Cc2ccccc2)c2ccc(Br)cc12 | -9.32
Cc1ccc(N(CC(=O)NCC2CCCO2)C(=O)CCC(=O)Nc2ccccn2)cc1 (centres unmarked) | 6.62
CCCCc1n[nH]c(=S)n1Cc1ccc(Cl)cc1 | -30.2
CCCNc1nc(N2CCOCC2)nc(N2CCOCC2)n1 | -2.88
CCc1ccccc1NC(=O)Nc1ccc(F)cc1F | 7.78
COc1ccc(S(=O)Cc2ccc(C(=O)NC3CC3)o2)cc1 (centres unmarked) | 10.1
Brc1ccc(N=Nc2ccc3ccccc3n2)cc1 | 4.03
COc1ccccc1C(=O)COC(=O)c1ccc(Cl)nc1 | -37.3
CC1CCCCC12NC(=O)N(CC(=O)NCCc1ccc(F)cc1)C2=O (centres unmarked) | -19.7
Cc1ccc2[nH]c(=O)c3cc(C(=O)N4CCN(C(=O)c5ccco5)CC4)sc3c2c1 | -21.6
CC(c1ccccc1)n1cc(C(=O)NCc2ccccn2)nn1 (centres unmarked) | 4.98
O=C(CSc1nnc2ccc3ccccc3n12)N1CCOCC1 | -10.5
COC(=O)CC(c1ccccc1F)N1Cc2ccccc2C1=O (centres unmarked) | 0.449
